# Assay results published in the supplement of paper PMC8728848.
# The other results are listed elsewhere or left out.
# How the values were obtained:
# Experiment in all cases: glycan array binding signal (z-score within array); higher = stronger binding
# Conditions in all cases: glycan notation: IUPAC condensed, linker removed
# Gal(a1-3)Gal(b1-4)GlcNAc = biological target: Gal(a1-3)Gal(b1-4)GlcNAc
# Procedure, shortened: (§1)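 Negative Z-scores can be read as non-binding. The Z-score is calculated within each array and then averaged across arrays of one protein sequence at different concentrations or buffers and across linkers. Arrays, 3228 in all, were curated from the Consortium for Functional Glycomics database and kept only where the protein sequence was available.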
# [1] = biological target: Gal(a1-3)Gal(b1-4)GlcNAc(b1-2)Man
# Procedure, shortened: as §1
# [2] = biological target: Gal(a1-3)Gal(b1-4)GlcNAc(b1-2)Man(a1-3)[Gal(a1-3)Gal(b1-4)GlcNAc(b1-2)Man(a1-6)]Man(b1-4)GlcNAc(b1-4)GlcNAc
# Procedure, shortened: as §1
# [3] = biological target: Gal(a1-3)Gal(b1-4)GlcNAc(b1-3)GalNAc
# Procedure, shortened: as §1
# [4] = biological target: Gal(a1-3)Gal(b1-4)GlcNAc(b1-6)GalNAc
# Procedure, shortened: as §1
# [5] = biological target: Gal(a1-3)Gal(b1-4)[Fuc(a1-3)]GlcNAc
# Procedure, shortened: as §1
# [6] = biological target: Gal(a1-3)Gal(b1-4)[Fuc(a1-3)]GlcNAc(b1-2)Man(a1-3)[Gal(a1-3)Gal(b1-4)[Fuc(a1-3)]GlcNAc(b1-2)Man(a1-6)]Man(b1-4)GlcNAc(b1-4)GlcNAc
# Procedure, shortened: as §1
# Gal(a1-3)GalNAc = biological target: Gal(a1-3)GalNAc
# Procedure, shortened: as §1
# [7] = biological target: Gal(a1-3)[Gal(a1-4)]Gal(b1-4)GlcNAc
# Procedure, shortened: as §1
# [8] = biological target: Gal(a1-4)Gal(b1-3)GlcNAc(b1-2)Man(a1-3)[Gal(a1-4)Gal(b1-3)GlcNAc(b1-2)Man(a1-6)]Man(b1-4)GlcNAc(b1-4)GlcNAc
# Procedure, shortened: as §1
# Gal(a1-4)Gal(b1-4)Glc = biological target: Gal(a1-4)Gal(b1-4)Glc
# Procedure, shortened: as §1
# Gal(a1-4)Gal(b1-4)GlcNAc = biological target: Gal(a1-4)Gal(b1-4)GlcNAc
# Procedure, shortened: as §1
# [9] = biological target: Gal(a1-4)Gal(b1-4)GlcNAc(b1-2)Man(a1-3)[Gal(a1-4)Gal(b1-4)GlcNAc(b1-2)Man(a1-6)]Man(b1-4)GlcNAc(b1-4)GlcNAc
# Procedure, shortened: as §1
# [10] = biological target: Gal(a1-4)Gal(b1-4)GlcNAc(b1-3)Gal(b1-4)Glc
# Procedure, shortened: as §1
# Gal(a1-4)GlcNAc = biological target: Gal(a1-4)GlcNAc
# Procedure, shortened: as §1
# Gal(a1-6)Glc = biological target: Gal(a1-6)Glc
# Procedure, shortened: as §1
# Gal(b1-2)Gal = biological target: Gal(b1-2)Gal
# Procedure, shortened: as §1
# Gal(b1-3)Gal = biological target: Gal(b1-3)Gal
# Procedure, shortened: as §1
# Gal(b1-3)Gal(b1-4)GlcNAc = biological target: Gal(b1-3)Gal(b1-4)GlcNAc
# Procedure, shortened: as §1
# Gal(b1-3)GalNAc = biological target: Gal(b1-3)GalNAc
# Procedure, shortened: as §1
# [11] = biological target: Gal(b1-3)GalNAc(a1-3)[Fuc(a1-2)]Gal(b1-4)Glc
# Procedure, shortened: as §1
# [12] = biological target: Gal(b1-3)GalNAc(a1-3)[Fuc(a1-2)]Gal(b1-4)GlcNAc
# Procedure, shortened: as §1
# Gal(b1-3)GalNAc(b1-3)Gal = biological target: Gal(b1-3)GalNAc(b1-3)Gal
# Procedure, shortened: as §1
# [13] = biological target: Gal(b1-3)GalNAc(b1-3)Gal(a1-4)Gal(b1-4)Glc
# Procedure, shortened: as §1
# [14] = biological target: Gal(b1-3)GalNAc(b1-4)Gal(b1-4)Glc
# Procedure, shortened: as §1
# [15] = biological target: Gal(b1-3)GalNAc(b1-4)[Neu5Ac(a2-3)]Gal(b1-4)Glc
# Procedure, shortened: as §1
# Gal(b1-3)GlcNAc = biological target: Gal(b1-3)GlcNAc
# Procedure, shortened: as §1
# [16] = biological target: Gal(b1-3)GlcNAc(a1-3)Gal(b1-4)GlcNAc
# Procedure, shortened: as §1
# [17] = biological target: Gal(b1-3)GlcNAc(a1-6)Gal(b1-4)GlcNAc
# Procedure, shortened: as §1
# Gal(b1-3)GlcNAc(b1-2)Man = biological target: Gal(b1-3)GlcNAc(b1-2)Man
# Procedure, shortened: as §1
binder,measurement,setting,value
Di AAL2 (Agrocybe aegerita) (protein) MTSNVITQDLPIPVASRGFADIVGFGLDGVVIGRNAVNLQPFLAVKNFAQNAGGWLTTKHVRLIADTTGTGKGDIVGFGNAGVYVSVNNGKNTFADPPKMVIANFGYDAGGWRVEKHLRYLADIRKIGRADIIGFGEKGVLVSRNNGGLNFGPATLVLKDFGYDAGGWRLDRHLRFLADVTGNGHLDIVGFGDKHVFISRNNGDGTFAPAKSVIDNFCIDAGGWKIGDHPRFVADLTGDGTADIIGCGKAGCWVALNNGGGVFGQVKLVINDFGTDKGWQAAKHPRFIADLTGNGRGDVVGFGNAGVYVALNNGDGTFQSAKLVLKDFGVQQGWTVSKHRRFVVDLTGDGCADIIGFGEKETLVSYNDGKGNFGPVKALTNDFSFSGGKWAPETTVCWMANLDSSRHPAPAPMTSNVITQDLPIPVASRGFADIVGFGLDGVVIGRNAVNLQPFLAVKNFAQNAGGWLTTKHVRLIADTTGTGKGDIVGFGNAGVYVSVNNGKNTFADPPKMVIANFGYDAGGWRVEKHLRYLADIRKIGRADIIGFGEKGVLVSRNNGGLNFGPATLVLKDFGYDAGGWRLDRHLRFLADVTGNGHLDIVGFGDKHVFISRNNGDGTFAPAKSVIDNFCIDAGGWKIGDHPRFVADLTGDGTADIIGCGKAGCWVALNNGGGVFGQVKLVINDFGTDKGWQAAKHPRFIADLTGNGRGDVVGFGNAGVYVALNNGDGTFQSAKLVLKDFGVQQGWTVSKHRRFVVDLTGDGCADIIGFGEKETLVSYNDGKGNFGPVKALTNDFSFSGGKWAPETTVCWMANLDSSRH,glycan array binding signal (z-score),Gal(a1-3)Gal(b1-4)GlcNAc,-0.345
same,glycan array binding signal (z-score),[1],-0.325
same,glycan array binding signal (z-score),[2],-0.329
same,glycan array binding signal (z-score),[3],-0.333
same,glycan array binding signal (z-score),[4],-0.268
same,glycan array binding signal (z-score),[5],-0.339
same,glycan array binding signal (z-score),[6],-0.318
same,glycan array binding signal (z-score),Gal(a1-3)GalNAc,-0.326
same,glycan array binding signal (z-score),[7],-0.336
same,glycan array binding signal (z-score),[8],-0.333
same,glycan array binding signal (z-score),Gal(a1-4)Gal(b1-4)Glc,-0.332
same,glycan array binding signal (z-score),Gal(a1-4)Gal(b1-4)GlcNAc,-0.332
same,glycan array binding signal (z-score),[9],5.32
same,glycan array binding signal (z-score),[10],0.095
same,glycan array binding signal (z-score),Gal(a1-4)GlcNAc,-0.34
same,glycan array binding signal (z-score),Gal(a1-6)Glc,-0.33
same,glycan array binding signal (z-score),Gal(b1-2)Gal,-0.333
same,glycan array binding signal (z-score),Gal(b1-3)Gal,-0.332
same,glycan array binding signal (z-score),Gal(b1-3)Gal(b1-4)GlcNAc,-0.337
same,glycan array binding signal (z-score),Gal(b1-3)GalNAc,-0.334
same,glycan array binding signal (z-score),[11],-0.322
same,glycan array binding signal (z-score),[12],-0.324
same,glycan array binding signal (z-score),Gal(b1-3)GalNAc(b1-3)Gal,-0.329
same,glycan array binding signal (z-score),[13],-0.331
same,glycan array binding signal (z-score),[14],-0.331
same,glycan array binding signal (z-score),[15],-0.314
same,glycan array binding signal (z-score),Gal(b1-3)GlcNAc,-0.331
same,glycan array binding signal (z-score),[16],-0.327
same,glycan array binding signal (z-score),[17],-0.337
same,glycan array binding signal (z-score),Gal(b1-3)GlcNAc(b1-2)Man,-0.323
